Test results: patent US10954258B2, “STAT3 dimerization inhibitors” (H. LEE MOFFITT CANCER CENTER AND RESEARCH INSTITUTE, INC., priority 2012, dated 2021)

Target: GST-tagged, full-length human STAT3 protein (Homo sapiens, UniProt P40763)
Test: competitive fluorescence-polarization (FP) assay of STAT3 dimerization inhibition
Assay type: binding
Settings: for IC50: FP assay
Procedure: The ability of the libraries 9, 17 and 20 to inhibit STAT3 dimerization was evaluated by a competitive, fluorescence-polarization (FP)-based assay, as developed by Schust and Berg (Schust, et al., Chem. Biol. 2006; 13:1235-1242; Schust, et al., Anal. Biochem. 2004; 330:114-118) using full length STAT3 (N-terminal GST, SignalChem, Richmond, BC, Canada) and the fluorescent probe peptide 5-FAM-G(pTyr)LPQTV-CONH2 (GenScript, Piscataway, N.J., USA)(Id.). This peptide, derived from the gp130 IL6 receptor binds to the STAT3 SH2 domain; blocking its binding provides a measure of inhibition of STAT3 dimerization which binds through the sequence (pTyr)LKTKF (Ren, et al., Bioorg. Med. Chem. Lett. 2003:13:633-636).
Fluorescence polarization (FP) assay was conducted based on fluorescence signal differences between free and STAT3-bound fluorescently labeled peptide as described by Schust and Berg (Anal. Biochem. 2004; 330(1):114-118; Chem. Biol. 2006; 13(11):1235-1242). […] For evaluating compounds, STAT3 protein was incubated with various concentrations of S3I-1757 or S3I-1756 at room temperature for 60 min in the assay buffer (50 mM NaCl, 10 mM Hepes, pH 7.5, 1 mM EDTA, 0.01% Triton-X100, 2 mM dithiothreitol). Fluorescent peptide was added at a final concentration of 10 nM and incubated for 30 min at room temperature following which the FP measurements were examined by 2104 EnVisionR Multilabel Reader (Pekin Elmer, Waltham, Mass., USA) using FITC FP Dual module with excitation filter of FITC FP 480 and emission filter of FITC FP P-pol535 and S-pol535. The Z′ value was derived per the equation Z′=1-(3SDbound+3SDfree)/(mPbound-mPfree), where SD is the standard deviation and mP is the average of fluorescence polarization.

[1] = Table 1, read-out: IC50(μM), in vitro STAT3 dimerization inhibitory activity of library 9
[2] = text b118, b119, read-out: IC50, STAT3 inhibitory activity

Chain of UniProt P40763 (P40763 whole entry): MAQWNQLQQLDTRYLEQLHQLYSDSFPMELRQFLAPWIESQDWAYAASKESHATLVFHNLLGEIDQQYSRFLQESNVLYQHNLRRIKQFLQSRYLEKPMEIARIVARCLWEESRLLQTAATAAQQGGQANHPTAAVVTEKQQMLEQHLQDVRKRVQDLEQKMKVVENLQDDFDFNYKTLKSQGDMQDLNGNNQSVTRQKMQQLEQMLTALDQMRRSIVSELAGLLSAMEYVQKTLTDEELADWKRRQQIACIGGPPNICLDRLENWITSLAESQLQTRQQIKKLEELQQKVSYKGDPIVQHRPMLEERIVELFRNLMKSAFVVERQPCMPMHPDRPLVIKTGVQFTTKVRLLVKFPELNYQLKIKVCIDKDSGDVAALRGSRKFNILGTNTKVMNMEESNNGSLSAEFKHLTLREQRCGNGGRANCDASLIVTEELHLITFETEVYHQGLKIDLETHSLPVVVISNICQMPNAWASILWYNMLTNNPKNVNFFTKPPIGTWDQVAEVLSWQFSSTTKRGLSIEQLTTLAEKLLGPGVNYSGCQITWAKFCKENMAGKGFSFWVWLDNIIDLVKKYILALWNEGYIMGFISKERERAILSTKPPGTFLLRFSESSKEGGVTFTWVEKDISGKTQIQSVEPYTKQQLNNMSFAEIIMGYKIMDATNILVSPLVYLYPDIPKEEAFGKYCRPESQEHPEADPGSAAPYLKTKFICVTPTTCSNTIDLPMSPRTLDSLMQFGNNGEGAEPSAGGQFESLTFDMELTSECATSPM

| Compound | IC50 [1] [µM] | IC50 [2] | other results |
| --- | --- | --- | --- |
| Cc1ccc(S(=O)(=O)N(CC(=O)N(Cc2ccccc2)c2ccc(O)c(C(=O)O)c2)Cc2ccccc2)cc1 [Compound 9a, 5-(N-Benzyl-2-(N-benzyl-4-methylphenylsulfonamido)acetamido)-2-hydroxybenzoic acid] | 201.3 ± 1.5 | – | – |
| O=C(O)c1cc(N(Cc2ccccc2)C(=O)CN(Cc2ccccc2)S(=O)(=O)c2ccc(-c3ccccc3)cc2)ccc1O [Compound 9b, 5-(N-Benzyl-2-(N-benzylbiphenyl-4-ylsulfonamido)acetamido)-2-hydroxybenzoic acid] | 22.2 ± 9.1 | – | – |
| Cc1ccc(S(=O)(=O)N(CC(=O)N(Cc2ccc(Cl)cc2)c2ccc(O)c(C(=O)O)c2)Cc2ccccc2)cc1 [Compound 9c, 5-(2-(N-Benzyl-4-methylphenylsulfonamido)-N-(4-chlorobenzyl)acetamido)-2-hydroxybenzoic acid] | – | 50 ± 3.8 µM | – |
| O=C(O)c1cc(N(Cc2ccc(Cl)cc2)C(=O)CN(Cc2ccccc2)S(=O)(=O)c2ccc(-c3ccccc3)cc2)ccc1O [Compound 9d, 5-(2-(N-Benzylbiphenyl-4-ylsulfonamido)-N-(4-chlorobenzyl)acetamido)-2-hydroxybenzoic acid] | – | 15 ± 1.2 µM | – |
| COc1ccc(CN(C(=O)CN(Cc2ccccc2)S(=O)(=O)c2ccc(-c3ccccc3)cc2)c2ccc(O)c(C(=O)O)c2)cc1 [Compound 9f, 5-(2-(N-Benzylbiphenyl-4-ylsulfonamido)-N-(4-methoxybenzyl)acetamido)-2-hydroxybenzoic acid] | 22 ± 10 | 17 to 23 µM | – |
| O=C(O)c1cc(N(Cc2ccc(C3CCCCC3)cc2)C(=O)CN(Cc2ccccc2)S(=O)(=O)c2ccc(-c3ccccc3)cc2)ccc1O [Compound 9g, 5-(2-(N-Benzylbiphenyl-4-ylsulfonamido)-N-(4-cyclohexylbenzyl)acetamido)-2-hydroxybenzoic acid] | – | 17 to 23 µM and 23.3 µM | – |
| CCCCCCCc1ccc(CN(C(=O)CN(Cc2ccccc2)S(=O)(=O)c2ccc(-c3ccccc3)cc2)c2ccc(O)c(C(=O)O)c2)cc1 [Compound 9h, 5-(2-(N-Benzylbiphenyl-4-ylsulfonamido)-N-(4-heptylbenzyl)acetamido)-2-hydroxybenzoic acid] | – | 17 to 23 µM and 19 µM | – |
| CC(C)Cc1ccc(CN(C(=O)CN(Cc2ccccc2)S(=O)(=O)c2ccc(-c3ccccc3)cc2)c2ccc(O)c(C(=O)O)c2)cc1 [Compound 9i, 5-(2-(N-Benzylbiphenyl-4-ylsulfonamido)-N-(4-isobutylbenzyl)acetamido)-2-hydroxybenzoic acid] | 17 ± 3.6 | 17 to 23 µM | – |
| Cc1ccc(S(=O)(=O)N(C)CC(=O)N(Cc2ccccc2)c2ccc(O)c(C(=O)O)c2)cc1 [Compound 9j, 5-(N-Benzyl-2-(N,4-dimethylphenylsulfonamido)acetamido)-2-hydroxybenzoic acid] | > 1000 | > 1000 µM | – |
| CN(CC(=O)N(Cc1ccccc1)c1ccc(O)c(C(=O)O)c1)S(=O)(=O)c1ccc(-c2ccccc2)cc1 [Compound 9k, 5-(N-Benzyl-2-(N-methylbiphenyl-4-ylsulfonamido)acetamido)-2-hydroxybenzoic acid] | 57 ± 13 | – | – |
| CN(CC(=O)N(Cc1ccc(Cl)cc1)c1ccc(O)c(C(=O)O)c1)S(=O)(=O)c1ccc(-c2ccccc2)cc1 [Compound 9l, 5-(N-(4-Chlorobenzyl)-2-(N-methylbiphenyl-4-ylsulfonamido)acetamido)-2-hydroxybenzoic acid] | – | 61 ± 6 µM | – |
| CN(CC(=O)N(Cc1ccc(N2CCCCC2)cc1)c1ccc(O)c(C(=O)O)c1)S(=O)(=O)c1ccc(-c2ccccc2)cc1 [Compound 9w, 2-Hydroxy-5-(2-(N-methylbiphenyl-4-ylsulfonamido)-N-(4-(piperidin-1-yl)benzyl)acetamido)benzoic acid] | – | – | inhibition at 50 µM (read-out: % inhibition at 50 μM, library 9, Table 1): 14.4 ± 0.6%; inhibition at 50 µM (read-out: % inhibition at 50 μM, text b118, b119): 14.4% |

The next lines start with results.

| IC50 [1] [µM] | IC50 [2] | Compound | other results |
| --- | --- | --- | --- |
| 45 ± 12 | – | Cc1ccc(S(=O)(=O)N(C)CC(=O)N(Cc2ccc(C3CCCCC3)cc2)c2ccc(O)c(C(=O)O)c2)cc1 [Compound 9m, 5-(N-(4-Cyclohexylbenzyl)-2-(N,4-dimethylphenylsulfonamido)acetamido)-2-hydroxybenzoic acid] | – |
| 32 ± 12 | – | CN(CC(=O)N(Cc1ccc(C2CCCCC2)cc1)c1ccc(O)c(C(=O)O)c1)S(=O)(=O)c1ccc(-c2ccccc2)cc1 [Compound 9n, 5-(N-(4-Cyclohexylbenzyl)-2-(N-methylbiphenyl-4-ylsulfonamido)acetamido)-2-hydroxybenzoic acid] | – |
| 22 ± 8 | – | CCCCCCCc1ccc(CN(C(=O)CN(C)S(=O)(=O)c2ccc(-c3ccccc3)cc2)c2ccc(O)c(C(=O)O)c2)cc1 [Compound 9o, 5-(N-(4-Heptylbenzyl)-2-(N-methylbiphenyl-4-ylsulfonamido)acetamido)-2-hydroxybenzoic acid] | – |
| 20 ± 7.1 | – | CC(C)Cc1ccc(CN(C(=O)CN(C)S(=O)(=O)c2ccc(-c3ccc(Cl)cc3)cc2)c2ccc(O)c(C(=O)O)c2)cc1 [Compound 9p, 5-(2-(4′-Chloro-N-methylbiphenyl-4-ylsulfonamido)-N-(4-isobutylbenzyl)acetamido)-2-hydroxybenzoic acid] | – |
| 43 ± 6 | – | CN(CC(=O)N(Cc1ccc(Cl)cc1)c1ccc(O)c(C(=O)O)c1)S(=O)(=O)c1ccc(-c2ccc(Cl)cc2)cc1 [Compound 9q, 5-(2-(4′-Chloro-N-methylbiphenyl-4-ylsulfonamido)-N-(4-chlorobenzyl)acetamido)-2-hydroxybenzoic acid] | – |
| 50 ± 9.1 | – | COc1ccc(CN(C(=O)CN(C)S(=O)(=O)c2ccc(-c3ccc(Cl)cc3)cc2)c2ccc(O)c(C(=O)O)c2)cc1 [Compound 9r, 5-(2-(4′-Chloro-N-methylbiphenyl-4-ylsulfonamido)-N-(4-methoxybenzyl)acetamido)-2-hydroxybenzoic acid] | – |
| 23 ± 0.3 | – | CCCCCCCc1ccc(CN(C(=O)CN(C)S(=O)(=O)c2ccc(-c3ccc(F)cc3)cc2)c2ccc(O)c(C(=O)O)c2)cc1 [Compound 9s, 5-(2-(4′-Fluoro-N-methylbiphenyl-4-ylsulfonamido)-N-(4-heptylbenzyl)acetamido)-2-hydroxybenzoic acid] | – |
| > 300 | > 300 µM | O=C(O)c1cc(N(Cc2ccc(N3CCCCC3)cc2)C(=O)CN(Cc2ccccc2)S(=O)(=O)c2ccc(-c3ccccc3)cc2)ccc1O [Compound 9t, 5-(2-(N-Benzylbiphenyl-4-ylsulfonamido)-N-(4-(piperidin-1-yl)benzyl)acetamido)-2-hydroxybenzoic acid] | – |
| 33.5 ± 1.8 | – | O=C(O)c1cc(N(Cc2cccc(-c3ccncc3)c2)C(=O)CN(Cc2ccccc2)S(=O)(=O)c2ccc(-c3ccccc3)cc2)ccc1O [Compound 9u, 5-(2-(N-Benzylbiphenyl-4-ylsulfonamido)-N-(3-(pyridin-4-yl)benzyl)acetamido)-2-hydroxybenzoic acid] | – |
| – | 94.7 ± 0.32 µM | O=C(O)c1cc(N(Cc2ccc(N3CCOCC3)cc2)C(=O)CN(Cc2ccccc2)S(=O)(=O)c2ccc(-c3ccccc3)cc2)ccc1O [Compound 9v, 5-(2-(N-Benzylbiphenyl-4-ylsulfonamido)-N-(4-morpholinobenzyl)acetamido)-2-hydroxybenzoic acid] | – |
| 35.3 ± 12.7 | – | CN(CC(=O)N(Cc1cccc(-c2ccncc2)c1)c1ccc(O)c(C(=O)O)c1)S(=O)(=O)c1ccc(-c2ccccc2)cc1 [Compound 9x, 2-Hydroxy-5-(2-(N-methylbiphenyl-4-ylsulfonamido)-N-(3-(pyridin-4-yl)benzyl)acetamido)benzoic acid] | – |

“And” between values parts separate entries of the source, which are not always exact repeats. Equal values may be shown once. Read-outs that look alike come from different tables or passages of the source.
